Reference: the RNAGym collection of RNA variant scans (doi:10.7554/elife.90254)
Read counts are not given, so values of variants with three or more changes are uncertain.

B1: LINE1-mini (parent)
chain: GGCAGAGCUCAACACAGCGUGGCAAAGUGGCUGUGGCUAGACUGCC

Variants of: B1
Assay: self-cleavage, relative activity (ratio to wild type); higher = more cleavage; in vitro, sequencing; the parent is a self-cleaving ribozyme

Variant | self-cleavage
GGCAGAGCUCAACAAAGCGUGGCAAAGUGGUUGUGGCUUGACUGCC [C15A C31U A39U] | 0.02
GGCAGAGCUCAUCACAGCGUGGCAAAGGGGCUGUGGGUAGACUGCC [A12U U28G C37G] | 0.01
GGCAGAGCUCAACACAGCGUGGCUAAGUGGCUGUGGUUAGACUGAC [A24U C37U C45A] | 0.04
GGCAGGGGCCAACACAGCGUGACAAAGUGGCUGUGAAUACACUGCC [A6G C8G U9C G22A G36A C37A G40C] | 0.01
GGCUGAGCUCAACACACCGUGGCAAAGUGGUGGUGGCUAGACUGCC [A4U G17C C31U U32G] | 0.11
GGCAGAGCUCAACACAGCGUGGCAAAGCGGUUGUGGCAAGACUGCC [U28C C31U U38A] | 0.28
CGCAGAGCUCAACACAGCUUGGCAAAGUGGCCGUGGGUAGACUGCC [G1C G19U U32C C37G] | 0.01
GGUAGAGGUCAACACAGCGUGGCAAAGUGGCUGUUGCUAGACUGCC [C3U C8G G35U] | 0.15
GGCUGAGCUCAACCCAGCGUGGUAAAGUGACUGUGGCUAGACUGCC [A4U A14C C23U G30A] | 0.04
GCCAGAGCUCAACAUAGCGUGGCAAAGUGGCUGUUGCUAGACUGCC [G2C C15U G35U] | 0.04
GGCAGAGCUCAACACAGCGUGACAAAGUGGCUGUGGCUGGACUUCC [G22A A39G G44U] | 0.08
GGCAGAGUUCAACACAGCGUGGCAAACUGGAUGUGGCUAGACUGCC [C8U G27C C31A] | 0.14
CGCAGACCUCAACACAGCGUGGCAAAGAGCUUGUGGAUAGACUGCC [G1C G7C U28A G30C C31U C37A] | 0.02
GGCAGCGAUCAACACAGCGUGGCAAAGUGGCUGUGGCUAGACUCCC [A6C C8A G44C] | 0.09
UGCAGAGCUCAACACAGCCUGGCAAAGUGGCUGUGGCCAGACAUCC [G1U G19C U38C U43A G44U] | 0.01
GGCAUAGCUCAACACAACGUGGCAAAGUGGCUGUGGCUAGAGUGCC [G5U G17A C42G] | 0.05
GGCAGAGCUAAACACAGCAUGGCAAAGAGGCUGUGGCUAGACUGCC [C10A G19A U28A] | 0.03
GGCAGAGGUCAACACAGCGCGGCAAAGCGGCUGUGGCUUGACUGCC [C8G U20C U28C A39U] | 0.02
GCCAGACCUCAACACAACGUGGCCAAGUGGCUGUGGCUAGACUGCC [G2C G7C G17A A24C] | 0.05

Variant | self-cleavage
GCCCGAGCUCAACACAGCGAGGCAACUUGGCUGUGGCUAGACUGCC [G2C A4C U20A A26C G27U] | 0.04
AGCAGAGCUCAACACAGCGUGGAAACGUGGCUGUGGCUAGACUGCC [G1A C23A A26C] | 0.35
GGCAGGGUACAACACAGCGUGGCAAAGGGGCUGAGGCUAGAAUGCC [A6G C8U U9A U28G U34A C42A] | 0.03
AGCAGAGCUCAGCACUGCGUGACAAAGUGGCUGUGGCUAGUCUGUC [G1A A12G A16U G22A A41U C45U] | 0.02
CGCAGAACUCAACACAGCGUGGCACAGUGGCUGCGGCUAUACUGCC [G1C G7A A25C U34C G40U] | 0.05
GGUAGAGCUCAACACAGCUUGGCAAUGUGGCUGUGGCUAGACUGCC [C3U G19U A26U] | 0.22
GGCAGAGCUCAACACAGCGUGGCAAAGUUCCUGUGGUUAGACUGCC [G29U G30C C37U] | 0.05
GGCAUAGCUCAAUACAGCGUGGGAAAGUGGCUGUGGCUACACAACC [G5U C13U C23G G40C U43A G44A] | 0.06
GGCAGAGCUCAACACAGCGGGGUAAAGUGGCUGUGGCUCGACUGCC [U20G C23U A39C] | 0.06
GGCAGAGCUCACGUCAGCGUGUCAAAGUGGCUGUGGCUAGACUGCC [A12C C13G A14U G22U] | 0.03
GGCAGAGCUCAACACAGCGUGGCAAAGUGGCUGUGGCUAUUCUGUC [G40U A41U C45U] | 0.34
GGCAGACCCCAACCCAGCGUGGCAAGGUGGCCGUGGCUAGACUGCC [G7C U9C A14C A26G U32C] | 0.07
GGAAGAGUUUAACAGAGCGUGGCAAAGUGGCCGUGGCUAGACUGCC [C3A C8U C10U C15G U32C] | 0.12
GUCAGCGCUCCACACAGCGUGGCAAAGUGGCUGUGGCUAGACUGCC [G2U A6C A11C] | 0.02
GGCAGAGCUCAAAACAGCGAGGCAAAGUGGCUCUGGCUAGACUGCC [C13A U20A G33C] | 0.02
GGCCGAGCCCAAGAUACCGGGGCAAAGUGGCUGUGGCUAGACUGCC [A4C U9C C13G C15U G17C U20G] | 0.01
GGCAGAGCUCAAGACUGCGUGGCAAAGUGACUGUGGCUAGACUGCC [C13G A16U G30A] | 0.08
GACAGAGCUCAACACAGCGUGGCCAAGUGGCUGUGUCUGGGCUGUC [G2A A24C G36U A39G A41G C45U] | 0.01
GGCAGAGCUCAACAAGGCAUGGCAAAGUGGCUGUGGCUAGAAUGCC [C15A A16G G19A C42A] | 0.03

Variant | self-cleavage
AGCAGAGCUCAACACCGCGUGGCAAGGUGGCUGUGGCUAGACUGCA [G1A A16C A26G C46A] | 0.06
GUCAGAGCUCAAUACAGCAUGUCAAAGUGGCCGUGGCUAGGCUGCC [G2U C13U G19A G22U U32C A41G] | 0.02
GGCAGAGCUCAACAAAGCGUGGCAAAGUGGAUGUGGCUAUACUGCC [C15A C31A G40U] | 0
GGCCGAGCUCAACACAGCAUGGCAAAGUGGCCGUGACUAGACUGCC [A4C G19A U32C G36A] | 0.06
GGCAGACCUCAACUCAGCGUGCCAAAGUGGCUGUCGCUAGACUGCC [G7C A14U G22C G35C] | 0.06
GGCAGAGCUCAUCACAGCGCGGCAAAGUGGCUGUGGCUAGCCUGCC [A12U U20C A41C] | 0.01
AGCAGAGCUCAACACAGCGUGGCAAAAGGGCUGUGGCUAGACUGCC [G1A G27A U28G] | 0.41
GGCAGAGCUCAACACAGCGUGGCAUAAUGGCUGUCGCUAGACUGCG [A25U G27A G35C C46G] | 0.03
GGUAGAGCUCAACACAGCAUGACAAAUUGGAUGUGGCUUGACUGCC [C3U G19A G22A G27U C31A A39U] | 0.78
GGCAGAACUCACCAAAGCGUGUCAAAGUGGCUGUGGCUAGCCUGCC [G7A A12C C15A G22U A41C] | 0.03
GGCAGCGCUCAACAUAGCGUGGCAAAGUGGCUGUGGCUAGACUACC [A6C C15U G44A] | 0.07
GGCAGAGCUCAACAGACCGUGGCAAAGUGGCUGUGGCUAGACUGCU [C15G G17C C46U] | 0
UGCAGAGAUCAACACAGCGUGGCAAAGUGGCUGUGGUUAGACUGCC [G1U C8A C37U] | 0.02
GGAAGAGCUCAACACAGCGUGGCAAACUGGCUGUGGCUGGACUGCC [C3A G27C A39G] | 0.32
GGCAGAGCUAAACACAGCGUGGCGAAGUGGCGGUGGCUAGACUGCC [C10A A24G U32G] | 0.08
GGCAGAGCUCUACACAGCGUGGCUAAGUGGCUCUUGCUAGACUGCC [A11U A24U G33C G35U] | 0.01
GGCAUAGCUCAACACAGCUUGGCAAAGUGGCGGUGGCUAGACUGCC [G5U G19U U32G] | 0.02
GGCAUAGCUCAACACAGCGUGGGAAAGUGGCUGUGGCAAGACUGCC [G5U C23G U38A] | 0.08
